By IC50 is meant the dose at which the fit gives 50% viability; a fit beyond the top or the lowest dose is shown as a bound at that dose. For AUC the same curve is integrated over the 256-fold range of doses and scaled to a fraction; the more sensitive the line, the further below 1. For part of these data: Any top dose called inferred comes from the curve model; the source does not state it.
Columns and labels:
Experiment in all cases: Viability of human cancer cell lines after 72 h of drug (GDSC screen)
[1] = compound: C=CCNC1=C2C[C@@H](C)C[C@H](OC)[C@H](O)[C@@H](C)/C=C(\C)[C@H](OC(N)=O)[C@@H](OC)/C=C\C=C(/C)C(=O)NC(=CC1=O)C2=O [17-AAG]; conditions: top dose 1 µM
Method: (§1)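 Human cancer cell lines in 384-well plates, medium with 10% serum, drug for 72 h over a 256-fold dose range (nine 2-fold or five 4-fold steps up to the top dose). Adherent lines were fixed and stained with the nucleic acid dye Syto60, suspension lines read with resazurin; signal relative to control wells, capped at 0 and 100%. One two-parameter sigmoid per drug and line, fitted in a mixed model over all curves with the slope shared within a line.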

[2] = compound: COc1cccc2c1C(=O)c1c(O)c3c(c(O)c1C2=O)C[C@@](O)(C(=O)CO)C[C@@H]3O[C@H]1C[C@H](N)[C@H](O)[C@H](C)O1 [Doxorubicin]; conditions: top dose 1.024 µM
Method: as §1

[3] = compound: CN(C)Cc1cccc(N=C(c2ccccc2)c2c(O)[nH]c3cc(C(=O)N(C)C)ccc23)c1 [BIX02189]; conditions: top dose 20 µM; top dose inferred
Method: as §1

[4] = compound: CS(=O)(=O)c1ccc(C(=O)Nc2ccc(Cl)c(-c3ccccn3)c2)c(Cl)c1 [Vismodegib]; conditions: top dose 10 µM; top dose inferred
Method: as §1

[5] = compound: COC(=O)CNC(=O)C(=O)OC [Dimethyloxalylglycine]; conditions: top dose 4000 µM; top dose inferred
Method: as §1

[6] = compound: CCc1cc(-c2n[nH]c(C)c2-c2ccc3c(c2)OCCO3)c(O)cc1O [CCT018159]; conditions: top dose 10 µM; top dose inferred
Method: as §1

[7] = compound: Cc1cnc(Nc2ccc(OCCN3CCCC3)cc2)nc1Nc1cccc(S(=O)(=O)NC(C)(C)C)c1 [TG101348]; conditions: top dose 10.24 µM
Method: as §1

[8] = compound: Cc1cnc(Nc2ccc(F)cc2Cl)nc1-c1c[nH]c(C(=O)N[C@H](CO)c2cccc(Cl)c2)c1 [VX-11e]; conditions: top dose 5.12 µM; top dose inferred
Method: as §1

[9] = compound: O=C(c1ccc(C(=O)N2CCC(N3CCCC3)CC2)c(Nc2ccccc2)c1)N1CCC(N2CCCC2)CC1 [UNC1215]; conditions: top dose 1 µM; top dose inferred
Method: as §1

[10] = compound: COc1cccc2cc(-c3nc([C@H]4CC[C@H](C(=O)O)CC4)n4ncnc(N)c34)[nH]c12 [OSI-027]; conditions: top dose 20 µM
Method: as §1

Row | Cell Line | AUC [1] | IC50 [1] [µM] | AUC [2] | IC50 [2] [µM] | AUC [3] | IC50 [3] [µM] | AUC [4] | IC50 [4] [µM] | AUC [5] | IC50 [5] [µM] | AUC [6] | IC50 [6] [µM] | AUC [7] | IC50 [7] [µM] | AUC [8] | IC50 [8] [µM] | AUC [9] | IC50 [9] [µM] | AUC [10] | IC50 [10] [µM]
1 | PA-TU-8902 (pancreas, adherent) | 0.932 | > 1 | 0.705 | 0.27 | 0.959 | > 20 | 0.982 | > 10 | 0.58 | 429 | 0.927 | > 10 | 0.91 | > 10.2 | 0.866 | > 5.12 | 0.981 | > 1 | 0.252 | 0.211
2 | PC-3 [JPC-3] (lung adenocarcinoma, adherent) | 0.94 | > 1 | 0.769 | 0.516 | 0.957 | > 20 | 0.98 | > 10 | 0.285 | 49.9 | 0.884 | > 10 | 0.831 | 9.67 | 0.957 | > 5.12 | 0.979 | > 1 | 0.461 | 0.944
3 | PCI-15A (head and neck, adherent) | 0.823 | 0.598 | 0.645 | 0.161 | 0.98 | > 20 | 0.98 | > 10 | 0.905 | > 4000 | 0.881 | > 10 | 0.908 | > 10.2 | 0.987 | > 5.12 | 0.979 | > 1 | 0.687 | 4.19
4 | PE/CA-PJ15 (head and neck, adherent) | 0.5 | 0.0626 | 0.685 | 0.222 | 0.972 | > 20 | 0.981 | > 10 | 0.454 | 185 | 0.821 | 6.44 | 0.965 | > 10.2 | 0.957 | > 5.12 | 0.984 | > 1 | 0.894 | > 20
5 | PF-382 (T-cell lymphoblastic leukaemia, suspension) | 0.99 | > 1 | 0.514 | 0.0696 | 0.797 | 8.13 | 0.991 | > 10 | 0.393 | 132 | 0.965 | > 10 | 0.623 | 1.33 | 0.945 | > 5.12 | 0.99 | > 1 | 0.351 | 0.512
6 | PSN1 (pancreas, adherent) | 0.458 | 0.0488 | 0.254 | 0.0146 | 0.921 | > 20 | 0.965 | > 10 | 0.931 | > 4000 | 0.827 | 4.86 | 0.812 | 4.43 | 0.203 | 0.0516 | 0.982 | > 1 | 0.635 | 2.76
7 | QIMR-WIL (acute myeloid leukaemia, suspension) | 0.928 | > 1 | 0.317 | 0.02 | 0.866 | 16.9 | 0.972 | > 10 | 0.564 | 371 | 0.897 | > 10 | 0.567 | 0.97 | 0.955 | > 5.12 | 0.985 | > 1 | 0.141 | 0.0992
8 | RCC10RGB (kidney, adherent) | 0.948 | > 1 | 0.946 | > 1.02 | 0.819 | > 20 | 0.964 | > 10 | 0.647 | 952 | 0.951 | > 10 | 0.931 | > 10.2 | 0.915 | > 5.12 | 0.967 | > 1 | 0.736 | 11.8
9 | RF-48 (stomach, adherent) | 0.975 | > 1 | 0.392 | 0.0311 | 0.797 | 10.8 | 0.984 | > 10 | 0.736 | 1300 | 0.944 | > 10 | 0.805 | 5.95 | 0.858 | 5.04 | 0.982 | > 1 | 0.233 | 0.187
10 | ROS-50 (B-cell leukaemia, suspension) | 0.984 | > 1 | 0.882 | > 1.02 | 0.807 | 13.9 | 0.973 | > 10 | 0.586 | 461 | 0.976 | > 10 | 0.728 | 3.46 | 0.981 | > 5.12 | 0.975 | > 1 | 0.377 | 0.519
11 | RPMI-6666 (Hodgkin lymphoma, suspension) | 0.923 | > 1 | 0.51 | 0.0686 | 0.775 | 9.53 | 0.958 | > 10 | 0.469 | 203 | 0.918 | > 10 | 0.482 | 0.565 | 0.862 | > 5.12 | 0.974 | > 1 | 0.235 | 0.178
12 | SAT (head and neck, adherent) | 0.59 | 0.126 | 0.874 | > 1.02 | 0.945 | > 20 | 0.896 | > 10 | 0.836 | > 4000 | 0.83 | > 10 | 0.784 | 7.23 | 0.898 | > 5.12 | 0.961 | > 1 | 0.965 | > 20
13 | SBC-5 (small cell lung carcinoma, adherent) | 0.682 | 0.181 | 0.392 | 0.0342 | 0.993 | > 20 | 0.993 | > 10 | 0.733 | 990 | 0.91 | 9.49 | 0.981 | > 10.2 | 0.993 | > 5.12 | 0.99 | > 1 | 0.976 | > 20
14 | SCC-25 (head and neck, adherent) | 0.699 | – | 0.626 | 0.15 | 0.957 | > 20 | 0.984 | > 10 | 0.683 | 874 | 0.871 | > 10 | 0.872 | > 10.2 | 0.805 | 3.01 | 0.982 | > 1 | 0.441 | 0.842
15 | SCH (stomach, adherent) | 0.984 | > 1 | 0.988 | > 1.02 | 0.988 | > 20 | 0.983 | > 10 | 0.807 | 2250 | 0.926 | > 10 | 0.958 | > 10.2 | 0.988 | > 5.12 | 0.968 | > 1 | 0.926 | > 20
16 | SK-ES-1 (Ewing sarcoma, semi-adherent) | 0.899 | > 1 | 0.451 | 0.0466 | 0.915 | > 20 | 0.977 | > 10 | 0.713 | 1050 | 0.912 | > 10 | 0.655 | 1.78 | 0.965 | > 5.12 | 0.981 | > 1 | 0.471 | 1.04
17 | SK-HEP-1 (liver, adherent) | 0.92 | > 1 | 0.359 | 0.0268 | 0.938 | > 20 | 0.989 | > 10 | 0.321 | 82.2 | 0.915 | > 10 | 0.989 | > 10.2 | 0.981 | > 5.12 | 0.988 | > 1 | 0.984 | > 20
18 | SK-UT-1 (soft tissue, adherent) | 0.422 | 0.039 | 0.285 | 0.0168 | 0.985 | > 20 | 0.988 | > 10 | 0.725 | 1010 | 0.806 | 4.54 | 0.945 | > 10.2 | 0.989 | > 5.12 | 0.988 | > 1 | 0.414 | 0.741
19 | SKN-3 (head and neck, adherent) | 0.977 | > 1 | 0.946 | > 1.02 | 0.922 | > 20 | 0.954 | > 10 | 0.841 | 3560 | 0.94 | > 10 | 0.929 | > 10.2 | 0.942 | > 5.12 | 0.978 | > 1 | 0.739 | 6.94
20 | SNU-C1 (large intestine, suspension) | 0.779 | 0.622 | 0.956 | > 1.02 | 0.977 | > 20 | 0.98 | > 10 | 0.791 | 2830 | 0.98 | > 10 | 0.906 | > 10.2 | 0.959 | > 5.12 | 0.971 | > 1 | 0.875 | > 20
21 | ST486 (Burkitt lymphoma, suspension) | 0.978 | > 1 | 0.272 | 0.0157 | 0.634 | 2.79 | 0.971 | > 10 | 0.319 | 83.6 | 0.951 | > 10 | 0.63 | 1.39 | 0.836 | 2.85 | 0.987 | > 1 | 0.275 | 0.314
22 | SU-DHL-4 (B-cell lymphoma, suspension) | 0.997 | > 1 | 0.735 | 0.237 | 0.944 | 18.4 | 0.997 | > 10 | 0.449 | 189 | 0.997 | > 10 | 0.916 | 7.35 | 0.933 | 4.25 | 0.997 | > 1 | 0.292 | 0.393
23 | SU-DHL-5 (B-cell lymphoma, suspension) | 0.971 | > 1 | 0.084 | 0.00488 | 0.939 | > 20 | 0.954 | > 10 | 0.073 | 17 | 0.886 | 6.35 | 0.528 | 0.747 | 0.816 | 2 | 0.993 | > 1 | 0.123 | 0.132
24 | SU-DHL-6 (B-cell lymphoma, suspension) | 0.994 | > 1 | 0.608 | 0.117 | 0.885 | 12.3 | 0.97 | > 10 | 0.123 | 27 | 0.928 | 8.92 | 0.678 | 1.73 | 0.976 | > 5.12 | 0.995 | > 1 | 0.062 | 0.0792
25 | SU-DHL-16 (B-cell lymphoma, suspension) | 0.824 | 0.393 | 0.549 | 0.0841 | 0.788 | 6.34 | 0.989 | > 10 | 0.405 | 147 | 0.983 | > 10 | 0.521 | 0.719 | 0.865 | 2.62 | 0.996 | > 1 | 0.009 | < 0.0781
26 | SUIT-2 (pancreas, adherent) | 0.926 | > 1 | 0.518 | 0.0719 | 0.695 | 4.53 | 0.982 | > 10 | 0.822 | 2500 | 0.983 | > 10 | 0.704 | 2.48 | 0.607 | 0.64 | 0.985 | > 1 | 0.402 | 0.663
